Test results from a collection of fitness landscapes (doi:10.1126/science.1257360).
This is one part of the list.

B1: PhoQ; a variant is named by its letters at X, in order, P23837 (parent)
chain: MKKLLRLFFPLSLRVRFLLATAAVVLVLSLAYGMVALIGYSVSFDKTTFRLLRGESNLFYTLAKWENNKLHVELPENIDKQSPTMTLIYDENGQLLWAQRDVPWLMKMIQPDWLKSNGFHEIEADVNDTSLLLSGDHSIQQQLQEVREDDDDAEMTHSVAVNVYPATSRMPKLTIVVVDTIPVELKSSYMVWSWFIYVLSANLLLVIPLLWVAAWWSLRPIEALAKEVRELEEHNRELLNPATTRELTSLVRNLNRLLKSERERYDKYRTTLTDLTHSLKTPLXXLQXXLRSLRSEKMSVSDAEPVMLEQISRISQQIGYYLHRASMRGGTLLSRELHPVAPLLDNLTSALNKVYQRKGVNISLDISPEISFVGEQNDFVEVMGNVLDNACKYCLEFVEISARQTDEHLYIVVEDDGPGIPLSKREVIFDRGQRVDTLRPGQGVGLAVAREITEQYEGKIVAGESMLGGARMEVIFGRQHSAPKDE

Variants of: B1
Experiment: enrichment ratio after two sorts for PhoP signalling (ratio (wild type AVST 3.29)); higher = more functional
Settings: with PhoP (E. coli)

Row | Variant | enrichment ratio
1 | SARH | ≤ 0.25
2 | FPRM | ≤ 0.25
3 | FNQY | ≤ 0.25
4 | AAAR | ≤ 0.25
5 | LEHL | ≤ 0.25
6 | MHEA | ≤ 0.25
7 | VAYG | ≤ 0.25
8 | SITH | 7.37
9 | LYGG | ≤ 0.25
10 | CSTP | ≤ 0.25
11 | HRTP | ≤ 0.25
12 | LEPD | ≤ 0.25
13 | SYEG | ≤ 0.25
14 | VNVQ | ≤ 0.25
15 | MHTR | ≤ 0.25
16 | SFRS | ≤ 0.25
17 | PIMV | ≤ 0.25
18 | NENQ | ≤ 0.25
19 | HHME | ≤ 0.25
20 | IMYE | ≤ 0.25
21 | VKWQ | ≤ 0.25
22 | SNTI | 10.1
23 | THSD | ≤ 0.25
24 | LEES | ≤ 0.25
25 | VDDL | ≤ 0.25

Row | Variant | enrichment ratio
26 | MRLA | ≤ 0.25
27 | PFTL | ≤ 0.25
28 | HIKF | ≤ 0.25
29 | SAMM | 12.7
30 | FYKN | ≤ 0.25
31 | RGGA | ≤ 0.25
32 | WAGK | ≤ 0.25
33 | RPFV | ≤ 0.25
34 | RKVH | ≤ 0.25
35 | GKDQ | ≤ 0.25
36 | VKDD | ≤ 0.25
37 | NCHS | ≤ 0.25
38 | PEQT | ≤ 0.25
39 | VATK | ≤ 0.25
40 | WFSH | ≤ 0.25
41 | DLAM | ≤ 0.25
42 | MITQ | ≤ 0.25
43 | QYVH | ≤ 0.25
44 | ITVR | 0.267
45 | PPFI | ≤ 0.25
46 | WWTK | ≤ 0.25
47 | WQNN | ≤ 0.25
48 | MNYP | ≤ 0.25
49 | WCPN | ≤ 0.25
50 | VWRW | ≤ 0.25

Row | Variant | enrichment ratio
51 | TYQK | ≤ 0.25
52 | TMAI | 8.73
53 | PVRT | ≤ 0.25
54 | EINF | ≤ 0.25
55 | LSVY | ≤ 0.25
56 | PHDV | ≤ 0.25
57 | RVCW | ≤ 0.25
58 | IFLS | ≤ 0.25
59 | IVRF | ≤ 0.25
60 | NMDY | ≤ 0.25
61 | RRCM | ≤ 0.25
62 | DDFV | ≤ 0.25
63 | MRHT | 0.477
64 | DLPW | ≤ 0.25
65 | APRN | ≤ 0.25
66 | DLHV | ≤ 0.25
67 | FNFA | ≤ 0.25
68 | LEFM | 5.19
69 | YVWV | ≤ 0.25
70 | FIEW | ≤ 0.25
71 | WAPE | ≤ 0.25
72 | ICWH | ≤ 0.25
73 | KLKC | ≤ 0.25
74 | TERY | ≤ 0.25
75 | VVER | ≤ 0.25

Row | Variant | enrichment ratio
76 | FDQI | ≤ 0.25
77 | ELPH | ≤ 0.25
78 | DGGF | ≤ 0.25
79 | LAES | ≤ 0.25
80 | FSEW | ≤ 0.25
81 | TIVA | ≤ 0.25
82 | RDHA | ≤ 0.25
83 | PCED | ≤ 0.25
84 | QCLR | ≤ 0.25
85 | SDLR | 0.328
86 | SPVY | ≤ 0.25
87 | RFDP | ≤ 0.25
88 | PLTM | ≤ 0.25
89 | MDMA | ≤ 0.25
90 | IEMD | ≤ 0.25
91 | YKNL | ≤ 0.25
92 | NSDP | ≤ 0.25
93 | GEQW | ≤ 0.25
94 | WRTA | ≤ 0.25
95 | MRRI | ≤ 0.25
96 | LKMW | ≤ 0.25
97 | GFQG | ≤ 0.25
98 | EHMW | ≤ 0.25
99 | DDHH | ≤ 0.25
100 | ACLC | 12.2

Row | Variant | enrichment ratio
101 | KIGR | ≤ 0.25
102 | ATVK | ≤ 0.25
103 | HAPC | ≤ 0.25
104 | FDCC | ≤ 0.25
105 | RPLT | ≤ 0.25
106 | DQAM | ≤ 0.25
107 | VFKK | ≤ 0.25
108 | PHEL | ≤ 0.25
109 | NIMY | ≤ 0.25
110 | SNII | 2.62
111 | DLLL | ≤ 0.25
112 | GEIA | 1.92
113 | LATF | ≤ 0.25
114 | EAKV | ≤ 0.25
115 | IEKP | ≤ 0.25
116 | KGIC | ≤ 0.25
117 | TRWA | ≤ 0.25
118 | SLWC | ≤ 0.25
119 | KPFD | ≤ 0.25
120 | QDNP | ≤ 0.25
121 | RTCE | ≤ 0.25
122 | PYHH | ≤ 0.25
123 | DSDC | ≤ 0.25
124 | IKGW | ≤ 0.25
125 | LISF | ≤ 0.25

Row | Variant | enrichment ratio
126 | TFIA | ≤ 0.25
127 | HDGI | ≤ 0.25
128 | AKHV | ≤ 0.25
129 | YTME | ≤ 0.25
130 | IHET | ≤ 0.25
131 | DYDQ | ≤ 0.25
132 | MVIA | ≤ 0.25
133 | PFGP | ≤ 0.25
134 | LLYF | ≤ 0.25
135 | KAID | ≤ 0.25
136 | IENQ | ≤ 0.25
137 | DEWN | ≤ 0.25
138 | FYWH | ≤ 0.25
139 | DNDM | ≤ 0.25
140 | GIML | 8.24
141 | LWEK | ≤ 0.25
142 | MHEE | ≤ 0.25
143 | DMNR | ≤ 0.25
144 | SHMQ | 5.56
145 | MSFY | 12.3
146 | KTLD | ≤ 0.25
147 | KAIT | ≤ 0.25
148 | VMLC | ≤ 0.25
149 | TEFV | 8.47
150 | PKSS | ≤ 0.25

Row | Variant | enrichment ratio
151 | QANL | ≤ 0.25
152 | RCVH | ≤ 0.25
153 | ICEW | ≤ 0.25
154 | IMDR | ≤ 0.25
155 | VEFI | ≤ 0.25
156 | VSKT | ≤ 0.25
157 | NKQY | ≤ 0.25
158 | GRIS | ≤ 0.25
159 | PTNH | ≤ 0.25
160 | FTWP | ≤ 0.25
161 | YERD | ≤ 0.25
162 | PWLC | ≤ 0.25
163 | PQRN | ≤ 0.25
164 | TQAY | 17
165 | NDQG | ≤ 0.25
166 | QVRN | ≤ 0.25
167 | MKHC | ≤ 0.25
168 | YPWY | ≤ 0.25
169 | MMVI | ≤ 0.25
170 | FVVH | ≤ 0.25
171 | NNGQ | ≤ 0.25
172 | VEFW | ≤ 0.25
173 | HVWQ | ≤ 0.25
174 | FDMH | ≤ 0.25
175 | YSSI | 0.437

Row | Variant | enrichment ratio
176 | IFVF | ≤ 0.25
177 | PAIR | ≤ 0.25
178 | IQQK | ≤ 0.25
179 | ADHP | ≤ 0.25
180 | WMQF | ≤ 0.25
181 | SVPY | ≤ 0.25
182 | NKSM | ≤ 0.25
183 | GPAC | ≤ 0.25
184 | NTVT | ≤ 0.25
185 | HQME | ≤ 0.25
186 | TGME | ≤ 0.25
187 | YVTC | 0.38
188 | AADI | ≤ 0.25
189 | NMTL | ≤ 0.25
190 | IFHR | ≤ 0.25
191 | SWRA | ≤ 0.25
192 | RPNI | ≤ 0.25
193 | LYNK | ≤ 0.25
194 | NDQL | ≤ 0.25
195 | RKRT | ≤ 0.25
